Reference: publication PMC6919601, “Identification of Plasmodium dipeptidyl aminopeptidase allosteric inhibitors by high throughput screening” (PLoS ONE, 2019)
The campaign covered roughly 110,000 compounds. About 230 (0.21%) showed an effect of 50% or more. Some of the results follow.

target: DPAP1 (Plasmodium falciparum, UniProt Q8IIJ9); assay: primary screen, percent inhibition; read by cleavage of a fluorogenic dipeptide substrate; higher = more effect of the substance; parameters: species or system P. falciparum D10 trophozoite lysates; single well
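Also: 30 min substrate incubation versus DMSO and 10 µM JCP410 controls.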

Chain of DPAP1 (Q8IIJ9 whole entry, looked up): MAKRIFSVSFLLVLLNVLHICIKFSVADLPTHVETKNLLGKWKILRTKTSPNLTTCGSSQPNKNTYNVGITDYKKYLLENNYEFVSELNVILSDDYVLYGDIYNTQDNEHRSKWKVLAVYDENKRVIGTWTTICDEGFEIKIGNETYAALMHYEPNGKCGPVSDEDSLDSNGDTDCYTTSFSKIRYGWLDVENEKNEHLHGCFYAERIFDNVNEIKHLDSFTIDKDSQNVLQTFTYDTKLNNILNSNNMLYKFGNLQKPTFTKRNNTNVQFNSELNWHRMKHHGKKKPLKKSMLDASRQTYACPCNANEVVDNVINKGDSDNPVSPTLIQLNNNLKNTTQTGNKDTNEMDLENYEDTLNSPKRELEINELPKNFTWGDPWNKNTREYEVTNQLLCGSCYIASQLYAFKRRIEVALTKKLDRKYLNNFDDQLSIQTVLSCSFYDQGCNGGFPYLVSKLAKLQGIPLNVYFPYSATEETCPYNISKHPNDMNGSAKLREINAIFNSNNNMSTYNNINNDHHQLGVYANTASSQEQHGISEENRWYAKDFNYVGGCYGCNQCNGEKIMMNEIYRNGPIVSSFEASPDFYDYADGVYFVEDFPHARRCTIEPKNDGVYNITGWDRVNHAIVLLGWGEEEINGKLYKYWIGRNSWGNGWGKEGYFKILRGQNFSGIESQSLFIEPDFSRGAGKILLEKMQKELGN

Structure (SMILES)	% Inhibition @ 10 uM
COc1ccc(C(=O)Nc2ccc(N3CCN(C(=O)c4ccco4)CC3)cc2)cc1	-5.32%
Cc1nc2c(C(=O)NCCc3ccccc3)cnn2c(O)c1Cc1cccc(Cl)c1	0.723%
Cc1ccc(C(=O)N2CCCC(C)C2)cc1[N+](=O)[O-] (centres unmarked)	-1.48%
CC(NC(=O)NCc1noc2ccccc12)c1ccccc1 (centres unmarked)	1.93%
COc1ccc2[nH]c3c(c2c1)CCNC3c1cccc(O)c1 (centres unmarked)	-4.12%
O=C(Nc1cccc(CCc2ccccn2)c1)NC1CCCCC1	-1.98%
COCCN1C(=O)c2ccccc2C(C(=O)N2CC(C)CC(C)C2)C1c1c[nH]c2ccccc12 (centres unmarked)	9.11%
COc1ccccc1/C=C/c1nn2c(-c3ccncc3)nnc2s1	4.47%
Cc1c2ccccc2cc[n+]1CCCS(=O)(=O)O	1.25%
CCCN(CCO)Cc1ccc(Br)s1	1.38%
CCCCCOC(=O)c1ccc2c(c1)C(=O)N(c1ccc(OC)cc1)C2=O	0.912%
Cc1ccc2[nH]c3c(c2c1)CCCC3NC1CCCCC1 (centres unmarked)	-0.482%
CC[C@H](C[C@H](NC(=O)OCc1ccccc1)C(=O)NCC#N)c1ccccc1	-6.56%
O=C(O)C1CC=CCC1C(=O)N1CCCc2ccccc21 (centres unmarked)	5.26%
CC1CCN(S(=O)(=O)c2ccc(NC(=O)CC(C)(C)C)cc2)CC1	0.709%
COc1cc(CN2CCN(c3ccccc3F)CC2)cc(OC)c1OC	-2.81%
CSc1nnc(NC(=O)Cc2coc3ccc(C)cc23)s1	-2.4%
CC(=O)c1sc2nc3ccccc3n2c1C	2.33%
N#C/C(=C\c1nc2ccccc2[nH]1)c1ccc(N2CCCCC2)cc1	3.48%
O=C(CCCN1C(=O)c2cccc3cccc(c23)C1=O)NCC1CCCO1 (centres unmarked)	11.8%
COc1nc(Nc2ccccc2)nc(NC(C)(C)C)n1	5.37%
O=C(CCCCCN1C(=O)C2C3C=CC(C3)C2C1=O)Nc1ncccc1O (centres unmarked)	-4.62%
CCCN1C(=O)S/C(=C\c2cc(Br)c(O)c(OC)c2)C1=O	-6.02%
CC(=O)C1=C(C)N(C)C(=O)NC1c1cccs1 (centres unmarked)	0.708%
CCCOc1ccc(N2C(=O)CC(N3CCN(Cc4ccccc4)CC3)C2=O)cc1 (centres unmarked)	3.8%
CN1CCN(Cc2ccccc2)CC1	-3.71%

Structure (SMILES)	% Inhibition @ 10 uM
CN1C(=O)C(=CNC2CC(C)(C)NC(C)(C)C2)C(=O)N(C)C1=O	2.38%
CC1=C(C(=O)Nc2ccccc2F)C(c2ccc(F)cc2)C2=C(O)CC(C)(C)CC2=N1 (centres unmarked)	-5.34%
O=S(=O)(c1ccc(F)cc1)N1CCCN(S(=O)(=O)c2ccc(F)cc2)CC1	0.605%
CC(O)c1ccc(NC(=O)c2nn3c(c2Cl)NC(c2cccs2)CC3C(F)(F)F)cc1 (centres unmarked)	2.44%
Cc1ccc(C)c(CN2CCC(O)CC2)c1	3.1%
Cc1ccc(N2C(=O)CC(NCc3cccc(Cl)c3)C2=O)cc1 (centres unmarked)	-5.71%
CN1CCN(S(=O)(=O)c2ccc(NC(=O)Nc3cccc(Cl)c3)cc2)CC1	-0.425%
COc1ccccc1NC(=O)/C(=C/c1ccc(C)o1)NC(=O)c1ccccc1	5.67%
CNC(=O)c1ccc2c(c1O)C(=O)c1ccccc1C2=O	3.81%
COc1ccc(N2C(=O)NC(=O)/C(=C/c3ccc(Br)o3)C2=O)cc1	-3.09%
CCOC(=O)c1c(C)[nH]c(C)c1S(=O)(=O)NCC(=O)N(C)Cc1ccco1	5.51%
CCOc1cc(CNC(=O)c2cc(C3CC3)[nH]n2)cc(OCC)c1OCC	-1.63%
O=C(c1ccccc1)C1(c2ccccc2)COCO1 (centres unmarked)	6.61%
COc1ccc(-c2cc(C3CC3)nc3sc(C#N)c(N)c23)cc1	0.51%
O=[N+]([O-])c1ccc(CN2CCc3ccccc3C2)s1	-2.81%
Cc1ccc(OCCN2CCN(c3ncnc4c3cnn4-c3ccccc3)CC2)cc1	2.56%
CC1CCCN(CCCNC(=O)c2coc3nc4ccccc4nc23)C1 (centres unmarked)	6.95%
CC(=O)Nc1ccc2sc(C)nc2c1	0.035%
CC1CCN(Cc2nc3c(c(=O)n(C)c(=O)n3C)n2CCc2ccccc2)CC1	3.63%
O=C(NCCN1CCCCCC1)C1CCN(c2nnc(-n3cccc3)s2)CC1	-4.04%
COc1cccc(NC(=O)CN(c2cc(C)ccc2C)S(C)(=O)=O)c1	0.00477%
N#CCNC(=O)C1CCCCN1S(=O)(=O)c1ccc(-c2cccs2)cc1 (centres unmarked)	1.7%
c1coc(CNc2ncnc3ccccc23)c1	-1.44%
CCOc1ccc(/C=N/n2c(C)nnc2C)cc1OC	13.3%
CC(C)OCCCNC(=O)c1nn(C)c2c1COc1ccccc1-2	-1.72%
CCOc1ccc(CC(=O)C2=C(N3CCOCC3)CC(C)(C)CC2=O)cc1OCC	2.99%

Structure (SMILES)	% Inhibition @ 10 uM
Cc1ccc(C(=O)N/C(=C\c2ccco2)C(=O)NCCc2ccccc2F)cc1C	-2.64%
O=C(c1ccccc1)c1cccn1CC(=O)N1CCN(C2CCCCC2)CC1	-4.04%
CCOc1ccccc1CN1CCN(Cc2cc(Br)ccc2O)CC1	-5.26%
CC(C)C(C(=O)O)N1C(=O)C2C3CC(C2C1=O)C1C(c2cccnc2)c2sc(O)nc2SC31 (centres unmarked)	-0.0235%
CCc1cc(=O)oc2c(C)c3c(cc12)CN(Cc1ccco1)CO3	0.895%
O=C(O)CC(c1ccccc1)c1ccc(O)c(Cl)c1Cl (centres unmarked)	-2.91%
Cc1cc(C)nc(SCC(=O)Nc2ccc(OC(F)(F)F)cc2)n1	-1.02%
Cn1c(=O)c2c(-c3ccc(Cl)cc3)n(-c3cccc(C#N)c3)cc2n(C)c1=O	6.67%
Cc1ccc(C(=O)Nc2cccc(C#N)c2)cc1	-2.74%
N#C/C(=C/Nc1ccccc1)c1nc(-c2cccs2)cs1	-3.15%
Cc1coc2cc3oc(=O)c(CCC(=O)N4CCCC4)c(C)c3cc12	5.68%
Cc1ccc2nc(NC(=O)C3CCN(S(=O)(=O)c4c(C)nc(O)nc4O)CC3)sc2c1	-3.87%
C=CCN1C(=O)S/C(=C/c2cc(Cl)c(OCC)c(OC)c2)C1=O	3.29%
COc1ccc(C2CC(C(F)(F)F)n3nc(C(N)=O)c(Cl)c3N2)cc1OC (centres unmarked)	2.44%
CCOc1cc(C2C3=C(O)CCCC3=Nc3nc(C(=O)OC)nn32)ccc1OC (centres unmarked)	-5.19%
CC(=O)Nc1ccc(S(=O)(=O)NC2CC3CCC2C3)cc1 (centres unmarked)	-3.03%
COC(=O)c1c(N)n(-c2cccc(C)c2C)c2nc3ccccc3nc12	1.96%
CN1CCN(C(=O)c2nn3c(C(F)(F)F)cc(-c4ccc(Cl)cc4)nc3c2Cl)CC1	-0.597%
Cc1cc(C)c(NC(=O)C2CCCN2Cc2ccccc2)c(C)c1 (centres unmarked)	1.57%
CCOC(=O)c1cnc2c(OC)ccc(C)c2c1O	-0.386%
COc1ccc(NC(=O)C2CCN(C(=O)c3ccc(OC)c(OC)c3)CC2)cc1OC	-1.17%
Cc1nn(-c2ccccc2)c2c1C(c1c(F)cccc1Cl)C(C#N)=C(N)O2 (centres unmarked)	4.08%
COc1ccc(OC)c([N+]2=C3SCCCN3C(O)(c3ccc(F)cc3)C2)c1 (centres unmarked)	6.89%
CCC(Oc1ccccc1)C(=O)Nc1ccc(N(CC)CC)cc1 (centres unmarked)	0.755%
COc1ccccc1-n1c(S)nnc1-c1nn(C)cc1Cl	0.64%
Cc1ccc(C)c(OCC(=O)Nc2ccccc2C(=O)Nc2ccccc2)c1	-1.6%

Structure (SMILES)	% Inhibition @ 10 uM
CCCC1CCc2c(sc(NC(=O)C3C4CCC(C4)C3C(=O)O)c2C(N)=O)C1 (centres unmarked)	-4.6%
Cc1ccsc1/C=C1/SC(=O)N(CC(=O)N2CCCCC2)C1=O	-5.45%
O=C(Nc1ccccn1)c1cc2cc(Br)ccc2oc1=O	12.7%
CC1CCN(C(=O)c2ccc(NC(=O)c3cccs3)cc2)CC1	3.66%
O=S(=O)(c1cccc(-c2csc(-c3ccccc3)n2)c1)N1CCCCC1	-1.82%
O=C(O)/C=C/C(=O)NCCC1=CCCCC1	7.49%
COC(=O)c1ccccc1C(=O)c1cccc2ccccc12	-2.47%
COc1ccc(CCNCc2ccc(C(=O)O)s2)cc1OC	1.03%
COc1cc(C)c(C#N)c(OC)n1	-3.04%
CC1=CC(C)(C)N(C)c2ccc(C3(C)CC(C)(C)N(C)c4ccccc43)cc21 (centres unmarked)	7.15%
COCCCNC(=O)c1ccc2c(c1)nc(C)n2-c1ccc(Br)cc1	-0.458%
COc1ccc(C2C(c3nc(-c4ccccc4)cs3)=C(N)Oc3c2c(=O)oc2ccccc32)cc1 (centres unmarked)	-3.27%
CCN1CCCC1CNC(=O)C1c2ccccc2C(=O)N(CCOC)C1c1c[nH]c2ccccc12 (centres unmarked)	5.62%
CCCOC(=O)c1ccc(Cn2nnc3sc4c(c3c2=O)CCCC4)cc1	2.41%
CC(C)Nc1nc(Cl)nc(N2CCOCC2)n1	-2.91%
Cc1nnc(N2CCC(C(=O)NCCc3cccs3)CC2)c2nn(-c3ccccc3)c(C)c12	6.89%
CCO/C(O)=C1\SCC(C(=O)NCc2cccc(OC)c2)N=C1C (centres unmarked)	-1.6%
COc1cccc(C2(C)SC(NC(C)=O)=NN2C(C)=O)c1 (centres unmarked)	0.813%
Cc1cc(C)n2nc(SCC(=O)NCc3ccccc3Cl)nc2n1	2.79%
CCOc1cccc(/C=C2\NC(=O)N(Cc3ccc(Cl)cc3)C2=O)c1O	-4.93%
Cc1ccc2c(c1)-c1c(cnn1CC(=O)NCCCN1CCN(C)CC1)CO2	-4.17%
Cc1ccccc1OCC(=O)Nc1ccc2ccccc2c1	-4.06%
O=C(C1CCCN(S(=O)(=O)c2cccc3nsnc23)C1)N1CCC2(CC1)OCCO2 (centres unmarked)	-0.719%
